Assay results: PubChem BioAssay AID624417 (National Center for Advancing Translational Sciences (NCATS), 2012)
About 6,400 (1.6%) of roughly 410,000 compounds were called active. The shares of active, inactive and inconclusive entries below differ from those in the screen. Calls follow the shape of the dose curve; as a rule, active = well fitted inhibition curve with a large enough effect; inconclusive = small, poorly fitted or top-dose-only effect; inactive = no such curve, though single readings can be large or run the other way. Where the call is inconclusive, the potency comes from a doubtful curve fit.

What follows are compounds tested against Glucagon-like peptide 1 receptor (Homo sapiens) (UniProt P43220) (assay: qHTS of GLP-1 Receptor Inverse Agonists (Inhibition Mode)). Conditions: HEK293 GLP-1R CRE-luciferase, luminescence, 24 h, GLP-1R form is constitutively active; activity change, negative = inhibition: at 38.3 µM (top of the series) unless noted.
UniProt P43220, sequence (P43220 whole entry, looked up): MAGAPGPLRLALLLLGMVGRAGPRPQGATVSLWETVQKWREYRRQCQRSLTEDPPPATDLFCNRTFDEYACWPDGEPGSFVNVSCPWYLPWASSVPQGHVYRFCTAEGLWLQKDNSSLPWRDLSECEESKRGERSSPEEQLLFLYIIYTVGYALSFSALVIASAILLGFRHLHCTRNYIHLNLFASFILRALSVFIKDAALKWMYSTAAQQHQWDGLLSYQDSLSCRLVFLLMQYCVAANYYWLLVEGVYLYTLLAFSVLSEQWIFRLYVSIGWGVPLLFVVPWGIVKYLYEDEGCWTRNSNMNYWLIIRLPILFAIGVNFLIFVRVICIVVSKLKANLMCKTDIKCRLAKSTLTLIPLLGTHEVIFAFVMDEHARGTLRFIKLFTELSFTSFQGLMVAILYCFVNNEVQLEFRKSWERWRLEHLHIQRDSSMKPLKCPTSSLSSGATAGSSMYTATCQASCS
Method in brief: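 Assay principle: reduced luminescence from a cAMP-responsive reporter in HEK293 cells co-expressing a constitutively active GLP-1R. Conditions: 24 hr compound incubation, 37 deg C, 5% CO2.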
% is scaled to controls: 0 for no effect and ±100 for the full control effect; potency is read from the fitted curve at half-maximal effect; tags tell the direction and shape of the fitted curve.
Also: nearly all actives have a fitted effect of over 55% in size.

Potency, active:
S=C(NCc1ccco1)Nc1ccc(Cl)c(Cl)c1 10 µM
CN(C)CCCn1c(SCC(=O)Nc2nc(-c3cccc(Br)c3)cs2)nc2ccccc2c1=O 11.2 µM
CCN(CC)c1ccc(NC(=O)c2c(C)nn(-c3ccc(F)cc3)c2-n2cccc2)c(C)c1 5.01 µM
O=C(COc1ccccc1)Nc1cc(C(F)(F)F)ccc1N1CCCC1 12.6 µM

Potency, inconclusive:
Fc1ccc(CNCCCSc2nnnn2-c2ccccc2)cc1 31.6 µM [inhibitor, single point]
CCCC1(c2ccccc2)NC(=O)N(CC(=O)N(C)Cc2c(F)cccc2Cl)C1=O (stereo not drawn) 11.2 µM [inhibitor, partial curve, poor fit]
CS(=O)c1nc(-c2ccc(Br)cc2)cc(-c2ccccc2)c1C#N (stereo not drawn) 15.8 µM [inhibitor, single point]
CC(OC(=O)CC1Sc2ccccc2NC1=O)C(=O)N(C)Cc1ccccc1 (stereo not drawn) 31.6 µM [inhibitor, single point]
Cc1ccc(F)cc1-c1cc2nc(NCCCN(C)C)n(C)c(=O)c2s1 10 µM [inhibitor, partial curve, poor fit]
O=C(Nc1nc(-c2cccs2)cs1)c1ccc(S(=O)(=O)N2CCCC2)cc1 28.2 µM [inhibitor, single point]
CC(NC(=O)CN1C(=O)NC2(CCCC2)C1=O)c1ccc2ccccc2c1 (stereo not drawn) 3.55 µM [inhibitor, partial curve, poor fit]
O=C(c1ccc(S(=O)(=O)Nc2ccc(F)cc2)cc1)N1CCN(c2ccccn2)CC1 8.91 µM [inhibitor, partial curve]
CC(C)[C@@H]1CC2=C(C(=O)OC(C)(C)O2)[C@H](CCc2ccccc2)O1 10 µM [inhibitor, partial curve, poor fit]
Cc1ccccc1Nc1ncnc2c1cnn2-c1ccccc1 8.91 µM [inhibitor, partial curve, poor fit]
COC(=O)c1cc(NS(=O)(=O)c2ccc3c(c2)OCCO3)ccc1Cl 11.2 µM [inhibitor, single point]
O=[N+]([O-])c1ccc(Nc2cccc(F)c2)nc1 28.2 µM [inhibitor, single point]
COc1ccc(N(CC(=O)NCCSCc2cccc(Cl)c2)S(C)(=O)=O)cc1Cl 11.2 µM [inhibitor, single point]
Cc1cc(O)c(C(C)C)cc1NC(=O)c1ccc(Cl)cc1 10 µM [inhibitor, partial curve, poor fit]
Cc1nn(-c2ccc(C(=O)NCC(c3ccco3)N3CCCC3)cc2)c(C)c1Cl (stereo not drawn) 6.31 µM [inhibitor, partial curve, poor fit]
COc1ccc(S(=O)(=O)Cc2ccc(C(=O)N3CCN(c4ccc(Cl)cc4)CC3)o2)cc1 11.2 µM [inhibitor, partial curve, poor fit]
N/C(Cc1cccs1)=N\OC(=O)COc1ccc(Cl)cc1Cl 28.2 µM [inhibitor, single point]
CCC(c1ccccc1)C(CC)c1cc(O)c(O)c(O)c1 (stereo not drawn) 31.6 µM [inhibitor, single point]
CC(=O)Nc1cccc(NC(=O)c2cccc(S(=O)(=O)N3CCN(Cc4ccccc4)CC3)c2)c1 31.6 µM [inhibitor, partial curve, poor fit]
CC(C)c1nc2sc3ccccc3c(=O)c2c(=O)n1Cc1ccccc1 0.794 µM [inhibitor, full curve, poor fit]
Clc1ccc(Cc2nnc(-c3ccccc3Br)o2)cc1 28.2 µM [inhibitor, single point]
COc1ccc(C(=O)c2ccc(OC)c(OC)c2OC)cc1 2 µM [inhibitor, full curve, poor fit]
CCN(CC)S(=O)(=O)c1ccc(NC(=O)Cn2ncc3c([nH]c4ccccc43)c2=O)cc1 8.91 µM [inhibitor, partial curve]
Cc1[nH]c2ccc(C(=O)N3CCN(c4ccccc4F)CC3)cc2c1C 12.6 µM [inhibitor, partial curve, poor fit]
O=c1c(-c2cccs2)nc2ccccc2n1C(c1ccccn1)c1nc2ccccc2[nH]1 (stereo not drawn) 20 µM [inhibitor, partial curve, poor fit]
CCOC(=O)c1c(C)[nH]c2c1-c1ccccc1C(=O)C2=O 3.16 µM [inhibitor, full curve, poor fit]
Cc1c(C(=O)N2CCc3ccccc3C2)oc2ccc(S(=O)(=O)N3CC(C)CC(C)C3)cc12 (stereo not drawn) 11.2 µM [inhibitor, partial curve]
Cc1ccc(-c2csc(NC(=O)C3CC(=O)N(Cc4ccco4)C3)n2)cc1 (stereo not drawn) 11.2 µM [inhibitor, single point]
CCOC(=O)C1=CCN(S(=O)(=O)c2ccccc2C)C1c1ccccc1 (stereo not drawn) 31.6 µM [inhibitor, single point]
COc1cc(C)c(C)cc1S(=O)(=O)N1CCCc2ccccc21 11.2 µM [inhibitor, partial curve]
COc1ccc(CCNC(=O)c2cnn(-c3ccc(F)cc3)c2C2CCN(C(=O)OC(C)(C)C)CC2)cc1OC 3.16 µM [inhibitor, single point]
O=C(NN=Cc1ccccc1O)c1cccc([N+](=O)[O-])c1 1.41 µM [inhibitor, full curve, poor fit]
Cc1nc(C)c(-c2ccc(SCc3ccccc3C)nn2)s1 28.2 µM [inhibitor, single point]
Cc1ccc(S(=O)(=O)N2CCN(C(=O)Cc3sc(C)nc3-c3ccc(F)cc3)CC2)c(C)c1 14.1 µM [inhibitor, single point]
OCCC1CN(Cc2cccn2-c2nccs2)CCN1CCc1ccccc1 (stereo not drawn) 2.82 µM [inhibitor, partial curve]
COc1ccc(-c2cc(C(=O)NCc3cccc(C(F)(F)F)c3)[nH]n2)c(C)c1 28.2 µM [inhibitor, single point]
O=C1CSc2ccc(C(=O)Nc3cccc(S(=O)(=O)Nc4ccc(Br)cc4)c3)cc2N1 12.6 µM [inhibitor, single point]
COc1ccc(CCNC(=O)c2ccc3c(c2)CCN3S(=O)(=O)c2ccccc2)cc1 17.8 µM [inhibitor, single point]
CCOc1cc(CNC(=O)c2cc(-c3ccccc3)n[nH]2)cc(OCC)c1OCC 11.2 µM [inhibitor, single point]
CN(CC(=O)Nc1ccc(F)cc1)C(=O)c1ccccc1Sc1ccccc1C#N 22.4 µM [inhibitor, single point]
O=c1oc(=S)oc2c1[C@H](c1ccc(Cl)cc1)O[C@H](C1CCCC1)C2 14.1 µM [inhibitor, partial curve, poor fit]
Cc1cc(OCC(=O)NC(C)C)cc(C)c1Br 15.8 µM [inhibitor, single point]
COc1ccccc1C(=O)NC(CCSC)C(=O)NNC(=O)c1ccccc1O (stereo not drawn) 10 µM [inhibitor, partial curve, poor fit]
CC(=O)N(C)N1c2ccccc2CCc2ccccc21 15.8 µM [inhibitor, single point]
CCc1nn2c(NCCOC)cc(C)nc2c1-c1ccc(F)cc1 11.2 µM [inhibitor, partial curve, poor fit]
O=S(=O)(Nc1cc(Cl)ccc1-n1cncn1)c1ccc(F)cc1 7.94 µM [inhibitor, partial curve, poor fit]
COc1ccc(Cc2noc(CN3CCCN(C4Cc5ccccc5C4)CC3)n2)cc1OC 28.2 µM [inhibitor, single point]

Activity change, negative = inhibition, inactive:
CCOC(=O)c1ccc(S(=O)(=O)N2CCN(CC(=O)NC(=O)NC(C)(C)C)CC2)cc1 0%
COc1ccc(NC(=O)c2cc(Cl)ccc2NC(=O)c2ccco2)c(OC)c1 -15.2%
CCOC(=O)N1CC=C2C(C#N)=C(N)C(C#N)(C#N)[C@H](c3ccc(OC(C)C)c(OCC)c3)[C@H]2C1 0.167%
CNCCCOc1ccc(C)cc1Br -21.8%
COc1ccc2cc(CN(CCO)C(=O)c3ccc(Br)cc3)c(=O)[nH]c2c1 1.36%
CCOc1ccc(/C=C/c2nc(C#N)c(N3CCN(CC)CC3)o2)cc1 -5.37%
O=C1OC(/C=C/c2ccc(Cl)cc2)=NC/1=C/c1ccco1 0%
COC(=O)C1CCN(C(c2cc(OC)c(OC)c(OC)c2)c2sc3nc(C)nn3c2O)CC1 (stereo not drawn) 4.01%
Cc1nc2c(C(=O)N3CCCCC3)cnn2c(C)c1Cc1ccccc1F -24.3%
COc1ccc2c(c1)O[C@H](c1ccc3c(c1)OCO3)[C@@H](OC(=O)N[C@H]1CCCc3ccccc31)C2=O -20.8%
CC1(C(=O)NS(=O)(=O)c2ccc(Br)cc2)CCN1C(=O)CCc1cccs1 (stereo not drawn) -2.23%
COc1ccccc1C(=O)NC(=O)COC(=O)Cc1n[nH]c(=O)c2ccccc12 39%
